The record followed here is the supplement of paper PMC10369915.

To fix the notation:
B1: HLA-DQB1_Y62_Y62S_YF (peptide)
chain: RFVTRSIFNRE
B2: HLA-C_Y183_L180Q (peptide)
chain: EQQRAYLEGTC
B3: HLA-C_Y31_R30K (peptide)
chain: SHSMKYFDTAV
B4: HLA-DQB1_Y62_Y58G (peptide)
chain: RGVTRYIYNRE
B5: HLA-DQB1_Y62 (peptide)
chain: RYVTRYIYNRE
B6: HLA-DRB1_Y107_A102G_YF (peptide)
chain: GAVDTYCRHNF
B7: HLA-DQB1_Y62_V59L_YF (peptide)
chain: RFLTRYIFNRE
B8: HLA-DPB1_Y59 (peptide)
chain: LERYIYNREEF
B9: HLA-DQB1_Y62_Y58L (peptide)
chain: RLVTRYIYNRE
B10: HLA-C_Y183_L180R (peptide)
chain: EQRRAYLEGTC
B11: HLA-B_Y51 (peptide)
chain: FISVGYVDDTQ
B12: HLA-C_Y137_D138N (peptide)
chain: RLLRGYNQSAY
B13: HLA-DRB1_Y107_A102G (peptide)
chain: GAVDTYCRHNY
B14: HLA-B_Y123_S121W (peptide)
chain: TLQWMYGCDVG
B15: HLA-DPB1_Y57_R61P_YF (peptide)
chain: RFLERYIFNPE
B16: HLA-C_Y31_D33Y (peptide)
chain: SHSMRYFYTAV
B17: HLA-C_Y31 (peptide)
chain: SHSMRYFDTAV
B18: HLA-DQB1_Y62_T60S (peptide)
chain: RYVSRYIYNRE

The other results are listed elsewhere or left out. No stated cut-off is given here; in the data, active = 3.2 or more and inactive = the rest. The signal is at background level for most entries.
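Further: displayed peptides selected on beads carrying the immobilized SH2 domain, with library peptides lacking any tyrosine serving as negative controls.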

For one assay, the target named is SHP2 C-SH2 domain E139D. The experiment in a line: enrichment score (SH2-bound / input frequency) (ratio); bacterial display of known human phosphotyrosine sites (pTyr-Var adds point mutants) read by sequencing; higher = stronger binding; tyrosines were phosphorylated by kinases first. The settings on record: peptide library: pTyr-Var.
As to B1, the enrichment score was inactive: 0.335.

With B2, the enrichment score is inactive: 0.489.

As to B3, the enrichment score was inactive: 0.903.

Consider B4, for which the enrichment score was inactive: 0.257.

For B5, the enrichment score was inactive: 0.22.

Consider B6, for which the enrichment score is inactive: 1.47.

For B7, the enrichment score was inactive: 0.349.

Consider B8, for which the enrichment score was inactive: 1.14.

With B9, the enrichment score was inactive: 0.312.

Take B10: the enrichment score was inactive: 0.674.

Take B11: the enrichment score is inactive: 1.27.

Regarding B12, the enrichment score was inactive: 1.34.

On to B13, for which the enrichment score is inactive: 1.36.

With B14, the enrichment score is inactive: 0.625.

On to B15, for which the enrichment score was inactive: 1.92.

For the molecule B16, the enrichment score is inactive: 2.69.

Consider B17, for which the enrichment score was inactive: 1.

As to B18, the enrichment score is inactive: 0.112.

The next assay concerns the target SHP2 C-SH2 domain wild-type. The description is as above. The settings on record: peptide library: pTyr-Var.
B1: the enrichment score was inactive: 0.321.

Take B2: the enrichment score is inactive: 0.608.

In the case of B3, the enrichment score is inactive: 0.844.

Consider B4, for which the enrichment score is inactive: 0.252.

For the molecule B5, the enrichment score was inactive: 0.254.

For the molecule B6, the enrichment score is inactive: 1.46.

Consider B7, for which the enrichment score is inactive: 0.331.

Regarding B8, the enrichment score was inactive: 0.884.

Take B9: the enrichment score is inactive: 0.371.

For B10, the enrichment score is inactive: 0.742.

For the molecule B11, the enrichment score is inactive: 1.2.

Consider B12, for which the enrichment score was inactive: 1.84.

B13: the enrichment score was inactive: 1.34.

For the molecule B14, the enrichment score was inactive: 0.861.

On to B15, for which the enrichment score was inactive: 1.59.

With B16, the enrichment score is inactive: 3.17.

Turning to B17, the enrichment score is inactive: 0.881.

In the case of B18, the enrichment score is inactive: 0.326.

In another assay the target is SHP2 N-SH2 domain L43F. The description is as above. The conditions noted are these: peptide library: pTyr-Var.
Turning to B1, the enrichment score was inactive: 0.224.

Turning to B2, the enrichment score was inactive: 0.702.

Turning to B3, the enrichment score is inactive: 0.782.

Take B4: the enrichment score is inactive: 0.202.

Turning to B5, the enrichment score was inactive: 0.224.

For B6, the enrichment score was inactive: 1.34.

Regarding B7, the enrichment score is inactive: 0.374.

Turning to B8, the enrichment score is inactive: 0.786.

B9: the enrichment score was inactive: 0.37.

As to B10, the enrichment score is inactive: 0.714.

Take B11: the enrichment score was inactive: 1.35.

As to B12, the enrichment score was inactive: 1.47.

In the case of B13, the enrichment score was inactive: 0.88.

Take B14: the enrichment score is inactive: 0.925.

In the case of B15, the enrichment score is inactive: 1.79.

Take B16: the enrichment score was inactive: 2.98.

Regarding B17, the enrichment score was inactive: 0.737.

B18: the enrichment score is inactive: 0.256.

A further assay has as its target SHP2 N-SH2 domain T42A. Described as above. The conditions noted are these: peptide library: pTyr-Var.
As for B1, the enrichment score is inactive: 0.324.

For the molecule B2, the enrichment score is inactive: 0.528.

On to B3, for which the enrichment score is inactive: 0.823.

For B4, the enrichment score is inactive: 0.22.

Take B5: the enrichment score is inactive: 0.232.

Turning to B6, the enrichment score is inactive: 1.35.

Regarding B7, the enrichment score was inactive: 0.384.

For the molecule B8, the enrichment score is inactive: 0.793.

With B9, the enrichment score was inactive: 0.106.

On to B10, for which the enrichment score is inactive: 0.834.

Consider B11, for which the enrichment score was inactive: 1.59.

As for B12, the enrichment score was inactive: 1.63.

Take B13: the enrichment score was inactive: 0.856.

Turning to B14, the enrichment score is inactive: 0.804.

For B15, the enrichment score is inactive: 2.06.

Take B16: the enrichment score was active: 6.65.

For the molecule B17, the enrichment score is inactive: 0.76.

In the case of B18, the enrichment score is inactive: 0.273.

A further assay deals with SHP2 N-SH2 domain T52S. Described as above. The conditions noted are these: peptide library: pTyr-Var.
As for B1, the enrichment score was inactive: 0.271.

With B2, the enrichment score is inactive: 0.588.

As to B3, the enrichment score is inactive: 0.96.

Take B4: the enrichment score is inactive: 0.199.

For the molecule B5, the enrichment score is inactive: 0.226.

Regarding B6, the enrichment score was inactive: 1.32.

Regarding B7, the enrichment score is inactive: 0.329.

With B8, the enrichment score is inactive: 0.978.

B9: the enrichment score was inactive: 0.112.

With B10, the enrichment score is inactive: 0.647.

As to B11, the enrichment score is inactive: 1.37.

For the molecule B12, the enrichment score is inactive: 1.35.

As for B13, the enrichment score was inactive: 1.2.

As for B14, the enrichment score was inactive: 0.626.

For B15, the enrichment score was inactive: 1.75.

As to B16, the enrichment score is inactive: 3.12.

In the case of B17, the enrichment score was inactive: 0.751.

Consider B18, for which the enrichment score was inactive: 0.68.

For the next assay, the target named is SHP2 N-SH2 domain wild-type. The description is as above. The settings on record: peptide library: pTyr-Var.
Turning to B1, the enrichment score is inactive: 0.231.

B2: the enrichment score was inactive: 0.651.

Take B3: the enrichment score was inactive: 0.804.

As to B4, the enrichment score was inactive: 0.268.

Consider B5, for which the enrichment score is inactive: 0.227.

As to B6, the enrichment score was inactive: 1.6.

With B7, the enrichment score was inactive: 0.51.

For the molecule B8, the enrichment score was inactive: 0.724.

Take B9: the enrichment score was inactive: 0.213.

Consider B10, for which the enrichment score was inactive: 0.888.

B11: the enrichment score is inactive: 1.13.

Regarding B12, the enrichment score is inactive: 1.92.

In the case of B13, the enrichment score was inactive: 1.25.

Consider B14, for which the enrichment score is inactive: 0.783.

For B15, the enrichment score was inactive: 1.8.

Consider B16, for which the enrichment score was inactive: 2.39.

Consider B17, for which the enrichment score is inactive: 0.843.

Turning to B18, the enrichment score was inactive: 0.249.
